Results from a collection of fitness landscapes (doi:10.1126/science.1257360).
This is one part of the list.

B1: PhoQ; a variant is named by its letters at X, in order, P23837 (parent)
chain: MKKLLRLFFPLSLRVRFLLATAAVVLVLSLAYGMVALIGYSVSFDKTTFRLLRGESNLFYTLAKWENNKLHVELPENIDKQSPTMTLIYDENGQLLWAQRDVPWLMKMIQPDWLKSNGFHEIEADVNDTSLLLSGDHSIQQQLQEVREDDDDAEMTHSVAVNVYPATSRMPKLTIVVVDTIPVELKSSYMVWSWFIYVLSANLLLVIPLLWVAAWWSLRPIEALAKEVRELEEHNRELLNPATTRELTSLVRNLNRLLKSERERYDKYRTTLTDLTHSLKTPLXXLQXXLRSLRSEKMSVSDAEPVMLEQISRISQQIGYYLHRASMRGGTLLSRELHPVAPLLDNLTSALNKVYQRKGVNISLDISPEISFVGEQNDFVEVMGNVLDNACKYCLEFVEISARQTDEHLYIVVEDDGPGIPLSKREVIFDRGQRVDTLRPGQGVGLAVAREITEQYEGKIVAGESMLGGARMEVIFGRQHSAPKDE

Variants of: B1
Test: enrichment ratio after two sorts for PhoP signalling (ratio (wild type AVST 3.29)); higher = more functional
Details: with PhoP (E. coli)

KIEP and QVII cannot be ordered by enrichment ratio: no more than 0.25 for the first, no more than 0.25 for the second.

FEPC and QLTE cannot be ordered by enrichment ratio: no more than 0.25 for the first, no more than 0.25 for the second.

Going from MASS to ACLA, the enrichment ratio rises from no more than 0.25 to 11.6.

FRCR and YAPG cannot be ordered by enrichment ratio: no more than 0.25 for the first, no more than 0.25 for the second.

YTRR and YYSL cannot be ordered by enrichment ratio: no more than 0.25 for the first, no more than 0.25 for the second.

GHQK and KGAA cannot be ordered by enrichment ratio: no more than 0.25 for the first, no more than 0.25 for the second.

FWMC and PKGT cannot be ordered by enrichment ratio: no more than 0.25 for the first, no more than 0.25 for the second.

WVYP and QNMS cannot be ordered by enrichment ratio: no more than 0.25 for the first, no more than 0.25 for the second.

PYCC and WHYR cannot be ordered by enrichment ratio: no more than 0.25 for the first, no more than 0.25 for the second.

EMIC and DIAQ cannot be ordered by enrichment ratio: no more than 0.25 for the first, no more than 0.25 for the second.

YRIW and FGTS cannot be ordered by enrichment ratio: no more than 0.25 for the first, no more than 0.25 for the second.

FWDT and NYCL cannot be ordered by enrichment ratio: no more than 0.25 for the first, no more than 0.25 for the second.

YEED and CLPR cannot be ordered by enrichment ratio: no more than 0.25 for the first, no more than 0.25 for the second.

ERCH and DNSS cannot be ordered by enrichment ratio: no more than 0.25 for the first, no more than 0.25 for the second.

Compared with HSML, DVFA is lower in enrichment ratio: 9.71 for the first, no more than 0.25 for the second.

DHKE and WAMR cannot be ordered by enrichment ratio: no more than 0.25 for the first, no more than 0.25 for the second.

Going from GMAI to NRIS, the enrichment ratio falls from 8.69 to no more than 0.25.

First: FVWG
Second: SKIS
The enrichment ratio of the first is lower: no more than 0.25 for the first, 3.41 for the second.

QLFA and LNVW cannot be ordered by enrichment ratio: no more than 0.25 for the first, no more than 0.25 for the second.

QIPE and DLDS cannot be ordered by enrichment ratio: no more than 0.25 for the first, no more than 0.25 for the second.

First: LELT
Second: EYRP
The enrichment ratio of the first is higher: 4.72 for the first, no more than 0.25 for the second.

VPRL and HPMA cannot be ordered by enrichment ratio: no more than 0.25 for the first, no more than 0.25 for the second.

DMAV and LCGN cannot be ordered by enrichment ratio: no more than 0.25 for the first, no more than 0.25 for the second.

NYYV and AKSE cannot be ordered by enrichment ratio: no more than 0.25 for the first, no more than 0.25 for the second.

First: SDTV
Second: RVTE
The enrichment ratio of the first is higher: 13.5 for the first, no more than 0.25 for the second.

RVEL and QGVP cannot be ordered by enrichment ratio: no more than 0.25 for the first, no more than 0.25 for the second.

First: TLAW
Second: RNRG
The enrichment ratio of the first is higher: 0.571 for the first, no more than 0.25 for the second.

KVQF and AMQI cannot be ordered by enrichment ratio: no more than 0.25 for the first, no more than 0.25 for the second.

IPWS and YAPI cannot be ordered by enrichment ratio: no more than 0.25 for the first, no more than 0.25 for the second.

WMCD and LLPW cannot be ordered by enrichment ratio: no more than 0.25 for the first, no more than 0.25 for the second.

MFDW and MMRT cannot be ordered by enrichment ratio: no more than 0.25 for the first, no more than 0.25 for the second.

DHYQ and HYGG cannot be ordered by enrichment ratio: no more than 0.25 for the first, no more than 0.25 for the second.

NFDH and WNLY cannot be ordered by enrichment ratio: no more than 0.25 for the first, no more than 0.25 for the second.

EQCF and DTMF cannot be ordered by enrichment ratio: no more than 0.25 for the first, no more than 0.25 for the second.

RSSG and NSEA cannot be ordered by enrichment ratio: no more than 0.25 for the first, no more than 0.25 for the second.

First: GLTL
Second: WCVW
The enrichment ratio of the first is higher: 8.42 for the first, no more than 0.25 for the second.

LFWT and PGQR cannot be ordered by enrichment ratio: no more than 0.25 for the first, no more than 0.25 for the second.

AHDP and EINW cannot be ordered by enrichment ratio: no more than 0.25 for the first, no more than 0.25 for the second.

ILDF and LWQT cannot be ordered by enrichment ratio: no more than 0.25 for the first, no more than 0.25 for the second.

PNSQ and SCEP cannot be ordered by enrichment ratio: no more than 0.25 for the first, no more than 0.25 for the second.

ARDS and ARFT cannot be ordered by enrichment ratio: no more than 0.25 for the first, no more than 0.25 for the second.

First: QHYM
Second: MYEI
The enrichment ratio of the first is higher: 3.6 for the first, no more than 0.25 for the second.

PCCF and KCNI cannot be ordered by enrichment ratio: no more than 0.25 for the first, no more than 0.25 for the second.

RMHV and PWPE cannot be ordered by enrichment ratio: no more than 0.25 for the first, no more than 0.25 for the second.

AASE and NVFN cannot be ordered by enrichment ratio: no more than 0.25 for the first, no more than 0.25 for the second.

QYFY and VTAW cannot be ordered by enrichment ratio: no more than 0.25 for the first, no more than 0.25 for the second.

IVWM and IPMH cannot be ordered by enrichment ratio: no more than 0.25 for the first, no more than 0.25 for the second.

QEGL and HWCT cannot be ordered by enrichment ratio: no more than 0.25 for the first, no more than 0.25 for the second.

NEKC and TRMT cannot be ordered by enrichment ratio: no more than 0.25 for the first, no more than 0.25 for the second.

Compared with EPVE, SSTA is higher in enrichment ratio: no more than 0.25 for the first, 6.29 for the second.

KKTR and HFRN cannot be ordered by enrichment ratio: no more than 0.25 for the first, no more than 0.25 for the second.

KIRY and IMNG cannot be ordered by enrichment ratio: no more than 0.25 for the first, no more than 0.25 for the second.

QFRL and RHIN cannot be ordered by enrichment ratio: no more than 0.25 for the first, no more than 0.25 for the second.

First: TSMH
Second: SVFE
The enrichment ratio of the first is higher: 10.3 for the first, no more than 0.25 for the second.

AVFV and PVFH cannot be ordered by enrichment ratio: no more than 0.25 for the first, no more than 0.25 for the second.

TNTE and TKTG cannot be ordered by enrichment ratio: no more than 0.25 for the first, no more than 0.25 for the second.

VMGN and RNSN cannot be ordered by enrichment ratio: no more than 0.25 for the first, no more than 0.25 for the second.

RNYD and VNVR cannot be ordered by enrichment ratio: no more than 0.25 for the first, no more than 0.25 for the second.

Going from VCGT to SICY, the enrichment ratio rises from no more than 0.25 to 5.22.

HWAA and KCHD cannot be ordered by enrichment ratio: no more than 0.25 for the first, no more than 0.25 for the second.

WYLD and TWGN cannot be ordered by enrichment ratio: no more than 0.25 for the first, no more than 0.25 for the second.

HFYL and HMRM cannot be ordered by enrichment ratio: no more than 0.25 for the first, no more than 0.25 for the second.

First: MNLE
Second: IWLQ
The enrichment ratio of the first is higher: 2.03 for the first, no more than 0.25 for the second.

WYNQ and VWAL cannot be ordered by enrichment ratio: no more than 0.25 for the first, no more than 0.25 for the second.

HPHM and DAII cannot be ordered by enrichment ratio: no more than 0.25 for the first, no more than 0.25 for the second.

PAYF and PHYW cannot be ordered by enrichment ratio: no more than 0.25 for the first, no more than 0.25 for the second.

Going from SSWL to PPFK, the enrichment ratio falls from 10.6 to no more than 0.25.

ATWW and KFCF cannot be ordered by enrichment ratio: no more than 0.25 for the first, no more than 0.25 for the second.

Going from QTFQ to HCSG, the enrichment ratio falls from 3.61 to no more than 0.25.

WGKY and SFAM cannot be ordered by enrichment ratio: no more than 0.25 for the first, no more than 0.25 for the second.

YKEL and LVGH cannot be ordered by enrichment ratio: no more than 0.25 for the first, no more than 0.25 for the second.

RWPF and DRSY cannot be ordered by enrichment ratio: no more than 0.25 for the first, no more than 0.25 for the second.

VCAK and YMNE cannot be ordered by enrichment ratio: no more than 0.25 for the first, no more than 0.25 for the second.

TFVR and PVQM cannot be ordered by enrichment ratio: no more than 0.25 for the first, no more than 0.25 for the second.

GPLW and NQPS cannot be ordered by enrichment ratio: no more than 0.25 for the first, no more than 0.25 for the second.

First: AITS
Second: FQSI
The enrichment ratio of the first is higher: 9.53 for the first, no more than 0.25 for the second.

Variant DRSI has an enrichment ratio of no more than 0.25.
